# Source: the RNAGym collection of RNA variant scans (doi:10.7554/elife.90254)
# The source gives no read counts; variants with many changes may rest on few reads.
# B1: OR4K15 (parent)
# chain: GUUAACGGUCAUAGGCCAUGGAAACUAGGAGCACCAUUUCGCUGCCAGUGAAGAAAUGAACAAAGAAAAUCUGGGCCAGGCAGGCAUCAAAAGAAAUAGUCUUGCGCUCAACCAGAAAGUCUGUAAUCAUUUUAAGGGUA
# Variants of: B1
# Assay: self-cleavage, relative activity (ratio to wild type); higher = more cleavage; in vitro, sequencing; the parent is a self-cleaving ribozyme
row,Variant,self-cleavage
1,GUUAACGGUCAUAGGCCAUGGAAACUAGGAGCACCAUUUCGCUGCCAGUGAAGAAAUGAACAAAGAAAUUCUGGGCCGGGCAGGCAUCAAAAGAAAUAGUCUCGCGCUCAGCCAGAAAGUCCGUAAUCUUUUUAAGGGUA [A69U A78G U103C A111G U122C A129U],0
2,GUUAACGGCCAUAGGCUAUGGAAACUAGGAGCACCAUUUCGCUGCCUGUGAAGAAAUGAACAAAGAAAAUCCGGGCCAGGCAGGCAUCAAAAGAGAUAGUCUUGCGCUCAACCAGAAAGUCUGUAAUCAUUUUAAGGGUA [U9C C17U A47U U72C A95G],0.39
3,GUUAACGGUCAUAGGCCAUGGAAACUAGGGGCACCAUUUCGCUGCCAGUGAAGAAAUGAACAAAGAAAAUCUGGGCCAGGCAGGCAUCAAAAGAAGUAGUCUUGCGCUCAACCAGAAGGUCUGUAAUCAUUUUAAGGGUA [A30G A96G A118G],1.57
4,GUUAACGGUCAUAGGCCAUGGAAACUAGGAGCACCAUUUCGCUGCCAGUGAAGAAAUGAACGAAGAAAAUCUGGGCCAGGCAGGCAUCAAACGAAAUAGUCCUGCGCUCAACCAGAAAGUCUGUAAUCAUUUUAAGGGUA [A62G A92C U102C],2.2
5,GUUAACGGUCAUAGGCCAUGGAAACUAGGAGCACCAUUUCGCUGCCAGUGAAGAAAUUAACAAAGAAAGUCUGGGCCAGGCAGGCAUCAGAAGAAAUAGUCUUGCGCUCAACCAGAAAGCCUGUAAUCAUUUUAAGGGUG [G58U A69G A90G U120C A140G],0.3
6,GUUAACGGUCACAGGCCAUGGAAACUAGGAGCACCAUUUCGCUGCCAGUGAAGAAAUGAACAAAGAAAAUCUGGGCCAGGCAGGCAUCAAAAGAAAUAGUCUUGCGCACAACCAGGAAGUCUGUAAUCAUUUUAAGGGUA [U12C U108A A116G],0.07
7,GUUAACGGUCAUAGGCCAUGGAAACUAGGAGCACCGUUUCGCUGCCAGUGAAGGAAUGAACAAGGAAAAUCUGGGCCAGGCAGGCAUCAAAAGAAAUAGUCUUGCGCUCAACCAGAAAGUCUGUAAUCGUUUUAAGGGUA [A36G A54G A64G A129G],2.1
8,GUUAACGGUCAUUGGCCAUGGAGACUAGGAGCACCAUUUCGCUGCCAGUGAAGAAAUGAACAAAGAAAAUCUGGGCCAGGCAGGCAUCAAAAGAAAUAGUCUUGCGCUCAACCAGAAAGUCUGUGAUCAUUUUAAGGGUA [A13U A23G A125G],0.23
9,GUUAACGGUCAUAGGCCAUGGAAACUAGGAGCACCAUUUCGCUGCCAGUGAAGAAACGAACAAGGAAAAUCUGGGCCAGGCAGGCAUCAAAAGAAAUAGUCUUGCGCUCAACCAGAAAGUCUGUAAUCUUUUUAAGGGUA [U57C A64G A129U],0.97
10,GUUAACGGUCAUAGGCCAUGGAGACUAGGAGCACCAUUUCGCUGCCAGUGAAGAAAUGAACAAAGAAAAUCUGGGCCAGGCAGGCAUCAAAAGAAAAAGUCUUGCGCUCAACCAGAAAGUCCGUAAUCAUUUUAAGGGUA [A23G U97A U122C],0.5
11,GUUAACGGUCAUAGGCCAUGGAAACUAGGAGCUCCAUUUCGCUGCCAGUGGAGAAAUGAACAAAGAAAAUCUGGGCCAGGCAGGCAUCAAAAGAAAUAGUCAUGCGCUCAACCAGAAAGUCUGUAAUCAUUUUAAGGGUA [A33U A51G U102A],0.74
12,GUUAACGGUCAUAGGCCGUGGGAACUAGGAGCACCAUUUCGCUGCCAGUGAAGAAACGAACAAAGAAAAUCUGGGCCAGGCAGGCAUCAAGAGAAAUAGUCUUGCGCUCAACCAGAAAGUCUGUAAUCAUUUUAAGGGUA [A18G A22G U57C A91G],0.32
13,GCUAACGGUCAUAGGCCAUGGAAACUAGGGGCACCAUUUCGCUGCCAGUGAAGAAAUGGACAAAGAAAAUCUGGGCCAGGCAGGCAUCGAAAGAAAUAGUCUUGCGCCCAACCAGAAAGUCUGUAAUCAUUUUAUGGGUA [U2C A30G A59G A89G U108C A135U],0.03
14,GUUAAGGGUCAUAGGCCAUGGAAACUAGGAGCACCAUUUCGCUGCCAGCGGAGAAAUGAACAAAGAAAAUCUGUGCCAGGCAGGCACCAAAAGAAAUAGUCUUGCGCUCAACCAGAGAGUCUGUAAUCAUUUUAAGGGUA [C6G U49C A51G G74U U87C A117G],0.12
15,GUUACCUGUCAUAGGCCAUGGAAACUAGGUGCACCAUUUCGCUGCCAGUGAAGAAAUGAACAAAGAAAAUCUGGGCCAGGCAGGCAUCAAAUGAAAUAGUCUUGCGCUCAACCAGAAAGUCUGUACUCAUUUUAAGGGUA [A5C G7U A30U A92U A126C],0.91
16,GUUAACGGUCAUAGGCCUUGGAAACUAGGAGCACCAUUUCGCUGCCAGUGAAGAAAUGAACAAAGAAAAUCUGGGCCAGGCAGGCAUCAAAAGAAAUAGUCUUGCGCUCAACCAGAAAGUCUGUAACCAUUCUAAGCGUA [A18U U127C U132C G137C],0.85
17,GUUAACGGUCCUAGGCCAUGGGAACUAGGAGCACCAUUUCGCUGCCAGUGAAGAAAUGAACAAAGAAAAUCUGGGCCAGGCGGGCAUCAAAAGAAAUAGUCUUGCGCUCAACCAGAAAGUCUGUAAUCAUUCUAAGGGUA [A11C A22G A82G U132C],0.44
18,GUUAACGGUCAUAGGCCAUGGAAACUAGGAGCACCAUUACGCUGCCAGUGAAGAAAUGAACAAAGAAAAUCUGGGCCAGGCAGGCAUCAAAGGAAAUAGUCUUGCGCUCAACCAGAAAGUCCGUAAUCAUUUUAAGGGUA [U39A A92G U122C],1.93
19,GUUAACGGUCAUAGGCCAUGGAAACUAGGGGCACCAUUUCGCGGCCAGUGAAGAAAUGAACAAAGAAAAUCUGGGCCAGGCAGGCAUCAAAAGAAAUAGUCUUGCGCCCAACCAGAAAGUCUGUAAUCAUUUUAAGGGUA [A30G U43G U108C],0
20,GUCAACGGUCAUAGGCCACGGAAACUAGGAGCACCAUUUCGCUGCCAGUGAUGGAAUGAACAAAGAAAAUCUGGGCCAGGCAGGCAUCAAAGGAAAUAGUCUUGCGCUCGACCAGAAAGUCUGUAAUCAUUUUAAGGGUA [U3C U19C A52U A54G A92G A110G],0.2
